Assay results reported in US20260139032A1 (35PHARMA, published 2026).

T1: GDF-11 (UniProt O95390 299-407)
T1 sequence (looked up): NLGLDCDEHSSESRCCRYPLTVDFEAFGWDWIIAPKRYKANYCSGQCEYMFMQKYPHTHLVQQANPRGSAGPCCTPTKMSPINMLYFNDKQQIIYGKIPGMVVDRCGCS

T2: recombinant human activin A (human, UniProt P08476 311-426)
T2 sequence (looked up): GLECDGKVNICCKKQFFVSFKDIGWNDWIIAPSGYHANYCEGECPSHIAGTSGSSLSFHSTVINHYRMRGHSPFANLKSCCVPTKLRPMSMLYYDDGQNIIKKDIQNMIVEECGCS

T3: GDF-8 (UniProt O14793 267-375)
T3 sequence (looked up): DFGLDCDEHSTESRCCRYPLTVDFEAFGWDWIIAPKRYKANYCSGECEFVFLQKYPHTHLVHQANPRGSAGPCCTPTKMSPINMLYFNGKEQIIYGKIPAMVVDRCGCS

T4: activin B (UniProt P09529 293-407)
T4 sequence (looked up): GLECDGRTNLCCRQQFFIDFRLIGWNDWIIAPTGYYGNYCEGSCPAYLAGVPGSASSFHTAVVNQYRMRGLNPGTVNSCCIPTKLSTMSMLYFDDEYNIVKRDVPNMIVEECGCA

T5: BMP-9 (UniProt Q9UK05 320-429)
T5 sequence (looked up): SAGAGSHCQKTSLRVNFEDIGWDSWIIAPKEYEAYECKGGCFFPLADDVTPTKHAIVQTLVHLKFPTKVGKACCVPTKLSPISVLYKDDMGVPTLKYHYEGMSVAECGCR

T6: BMP-10 (UniProt O95393 317-424)
T6 sequence (looked up): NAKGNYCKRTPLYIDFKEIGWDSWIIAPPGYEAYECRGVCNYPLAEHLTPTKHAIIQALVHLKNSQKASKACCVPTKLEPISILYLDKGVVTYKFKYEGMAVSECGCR

B1: wild type human ActRIIB-ECD-Fc (P75) (Fc fusion)
chain: ETRECIYYNANWELERTNQSGLERCEGEQDKRLHCYASWRNSSGTIELVKKGCWLDDFNCYDRQECVATEENPQVYFCCCEGNFCNERFTHLPEAGGPEVTYEPPPTG[human IgG1 Fc and a few adjoining residues omitted]
B2: P1198 (hActRIIB L33Q F58E, 3 aa GGG linker, IgG1-DL Fc) (Fc fusion)
chain: ETRECIYYNANWELERTNQSGLERCEGEQDKRQHCYASWRNSSGTIELVKKGCWLDDENCYDRQECVATEENPQVYFCCCEGNFCNERFTHLPEAGGPEVTYEPPPTG[human IgG1 Fc and a few adjoining residues omitted]
B3: P1193 (hActRIIB L33Y F58E, 10 aa linker, IgG1-DL Fc) (Fc fusion)
chain: ETRECIYYNANWELERTNQSGLERCEGEQDKRYHCYASWRNSSGTIELVKKGCWLDDENCYDRQECVATEENPQVYFCCCEGNFCNERFTHLPEAGGPEVTYEPPPTGGGGSGGG[human IgG1 Fc and a few adjoining residues omitted]
B4: P1194 (hActRIIB L33Y F58E, 14 aa linker, IgG1-DL Fc) (Fc fusion)
chain: ETRECIYYNANWELERTNQSGLERCEGEQDKRYHCYASWRNSSGTIELVKKGCWLDDENCYDRQECVATEENPQVYFCCCEGNFCNERFTHLPEAGGPEVTYEPPPTGGGGSGGGGSGG[human IgG1 Fc and a few adjoining residues omitted]
B5: P1191 (hActRIIB L33Y F58Q, 14 aa linker, IgG1-DL Fc) (Fc fusion)
chain: ETRECIYYNANWELERTNQSGLERCEGEQDKRYHCYASWRNSSGTIELVKKGCWLDDQNCYDRQECVATEENPQVYFCCCEGNFCNERFTHLPEAGGPEVTYEPPPTGGGGSGGGGSGG[human IgG1 Fc and a few adjoining residues omitted]
B6: P1197 (hActRIIB L33Q F58Q, 14 aa linker, IgG1-DL Fc) (Fc fusion)
chain: ETRECIYYNANWELERTNQSGLERCEGEQDKRQHCYASWRNSSGTIELVKKGCWLDDQNCYDRQECVATEENPQVYFCCCEGNFCNERFTHLPEAGGPEVTYEPPPTGGGGSGGGGSGG[human IgG1 Fc and a few adjoining residues omitted]
B7: P1200 (hActRIIB L33Q F58E, 14 aa linker, IgG1-DL Fc) (Fc fusion)
chain: ETRECIYYNANWELERTNQSGLERCEGEQDKRQHCYASWRNSSGTIELVKKGCWLDDENCYDRQECVATEENPQVYFCCCEGNFCNERFTHLPEAGGPEVTYEPPPTGGGGSGGGGSGG[human IgG1 Fc and a few adjoining residues omitted]

Target: T1, GDF-11
Experiment: cell-based or functional assay

| GDF-11 IC50 (nM), TGFβ-reporter HEK293 cell-based assay [nM] | Binder |
| --- | --- |
| 0.75 | B1 |
| 0.33 | B2 |
| 0.38 | B3 |
| 0.37 | B4 |
| 0.52 | B5 |
| 0.38 | B6 |
| 0.33 | B7 |

Target: T2, recombinant human activin A
Experiment: cell-based or functional assay

| Activin A IC50 (nM), TGFβ-reporter HEK293 cell-based assay [nM] | Binder |
| --- | --- |
| 2.3 | B1 |
| 1.1 | B2 |
| 0.65 | B3 |
| 0.42 | B4 |
| 0.74 | B5 |
| 0.49 | B6 |
| 0.41 | B7 |

Target: T3, GDF-8
Experiment: cell-based or functional assay

| GDF-8 IC50 (nM), TGFβ-reporter HEK293 cell-based assay [nM] | Binder |
| --- | --- |
| 0.67 | B1 |
| 0.37 | B2 |
| 0.5 | B3 |
| 0.39 | B4 |
| 0.64 | B5 |
| 0.39 | B6 |
| 0.26 | B7 |

Target: T4, activin B
Experiment: cell-based or functional assay

| Activin B IC50 (nM), TGFβ-reporter HEK293 cell-based assay [nM] | Binder |
| --- | --- |
| 1.4 | B1 |
| 106 | B2 |
| 352 | B3 |
| 25 | B4 |
| 4.3 | B5 |
| 1.2 | B6 |
| 16 | B7 |

Target: T5, BMP-9
Experiment: cell-based or functional assay

| fold decrease of inhibition potency on BMP-9, BMP-reporter HepG2 assay [fold] | Binder |
| --- | --- |
| > 100 | B4 |
| > 100 | B5 |
| > 100 | B6 |
| > 100 | B7 |

Target: T4, activin B
Experiment: cell-based or functional assay
Remark: another data set of the same source

| fold reduction of potency on activin B relative to P75, TGFβ-reporter HEK293 assay [fold] | Binder |
| --- | --- |
| > 50 | B2 |
| > 50 | B3 |
| < 20 | B4 |
| < 20 | B5 |
| < 20 | B7 |

Target: T5, BMP-9
Experiment: cell-based or functional assay
Remark: another data set of the same source

| BMP-9 IC50 (nM), BMP-reporter HepG2 cell-based assay [nM] | Binder |
| --- | --- |
| 3 | B1 |
| 627 | B5 |
| 424 | B6 |
| > 1000 | B7 |

Target: T6, BMP-10
Experiment: cell-based or functional assay

| BMP-10 IC50 (nM), BMP-reporter HepG2 cell-based assay [nM] | Binder |
| --- | --- |
| 2 | B1 |
| 7.7 | B2 |
| 9.4 | B3 |
| 3.6 | B4 |
| 1.5 | B5 |
| 1.2 | B6 |
| 2 | B7 |
